# Measurements published in article PMC6919601, “Identification of Plasmodium dipeptidyl aminopeptidase allosteric inhibitors by high throughput screening” (PLoS ONE, 2019).
# The whole screen tested about 110,000 compounds, of which about 230 (0.21%) showed an effect of 50% or more. Some of the results follow.
# Target: DPAP1 (Plasmodium falciparum, UniProt Q8IIJ9)
# Experiment: primary screen, percent inhibition; read by cleavage of a fluorogenic dipeptide substrate; higher = more effect of the substance
# Set-up: species or system P. falciparum D10 trophozoite lysates; single well
# 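Note: 30 min substrate incubation versus DMSO and 10 µM JCP410 controls.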
# DPAP1, sequence (Q8IIJ9 whole entry, looked up): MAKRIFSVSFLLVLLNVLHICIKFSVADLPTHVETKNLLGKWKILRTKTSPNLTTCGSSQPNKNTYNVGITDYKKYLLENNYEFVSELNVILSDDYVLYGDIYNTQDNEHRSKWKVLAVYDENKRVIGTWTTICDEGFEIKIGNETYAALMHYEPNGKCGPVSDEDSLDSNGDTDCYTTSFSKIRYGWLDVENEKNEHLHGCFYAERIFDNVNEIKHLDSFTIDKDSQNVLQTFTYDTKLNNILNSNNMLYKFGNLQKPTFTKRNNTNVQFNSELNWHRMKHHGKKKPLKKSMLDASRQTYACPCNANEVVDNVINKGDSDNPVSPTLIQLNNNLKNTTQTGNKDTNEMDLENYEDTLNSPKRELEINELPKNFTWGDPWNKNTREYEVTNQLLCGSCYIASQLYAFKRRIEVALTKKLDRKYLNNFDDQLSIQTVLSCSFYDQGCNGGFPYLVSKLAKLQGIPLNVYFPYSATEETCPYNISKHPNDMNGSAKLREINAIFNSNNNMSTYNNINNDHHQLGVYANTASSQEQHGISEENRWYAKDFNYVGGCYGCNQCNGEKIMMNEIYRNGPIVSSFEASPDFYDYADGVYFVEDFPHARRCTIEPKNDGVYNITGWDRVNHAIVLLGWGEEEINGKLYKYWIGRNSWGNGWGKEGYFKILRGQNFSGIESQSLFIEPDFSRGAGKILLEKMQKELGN
row,SMILES,% Inhibition @ 10 uM [%]
1,CCCCn1c(=O)c(C(=O)Nc2ccc(C)cc2C)c(O)c2ccccc21,-3.27
2,COc1ccc(CN2CCN(C/C=C/c3ccccc3)CC2)c(C)c1C,3.8
3,COc1ccc(Br)cc1CNC(=O)c1cnc(SC)nc1C,-1.08
4,CCSc1nnc(NC(=O)C(NS(=O)(=O)c2cccc3nsnc23)C(C)C)s1 (stereo not drawn),-6.03
5,COc1ccc(-c2nn(C)c(=O)c3ccccc23)cc1CNS(=O)(=O)c1ccc(Cl)cc1,0.413
6,CC(C)NC(=O)/C=C/c1ccc(C(C)C)cc1,1.92
7,COc1ccc(-n2c(SCC(=O)O)nnc2-c2ccc(OC)c(OC)c2)cc1,-0.495
8,COc1ccc(CN(C(=O)c2nc(SC(C)C)ncc2Cl)C2CCS(=O)(=O)C2)cc1 (stereo not drawn),2.41
9,CCC(CC)C(C#N)NC(=O)[C@H](CC(C)C)NC(=O)OCc1ccccc1 (stereo partly drawn),-1.41
10,CCCN(CCC)C(=O)C1CCCN(c2ncnc3onc(C)c23)C1 (stereo not drawn),-1.52
11,CC(C)CC(CC(C)C)C(=O)NCC#N,3.19
12,COc1ccc(Cl)cc1C(=O)Nc1sc(C)c(C)c1C#N,2.44
13,Cc1nnc(N2CCCC(C(=O)NC(C)c3ccccc3)C2)c2nn(-c3ccc(Cl)cc3)c(C)c12 (stereo not drawn),4.23
14,CC(=O)C1=C(N2CCCCC2)c2ccc(-c3ccccc3)n2C1=O,-2.5
15,CCOC(=O)c1c(C)n(Cc2ccc3c(c2)OCO3)c2ccc(O)cc12,-2.39
16,N#Cc1ccc(-c2cccnc2)nc1SCC(=O)O,-2.45
17,CN1CC=C2C(C#N)=C(N)C(C#N)(C#N)C(c3cccs3)C2C1 (stereo not drawn),3.77
18,C=CCNC(=O)/C(NC(=O)c1ccccc1)=C(/Sc1ccc(Cl)cc1)c1ccccc1,-3.98
19,O=S(=O)(Nc1nc2ccccc2nc1N1CCN(c2ccccn2)CC1)c1ccc(Cl)cc1,-0.704
20,CCOC(=O)N1CCC(NC(=O)c2sc3nc(C)cc(C)c3c2-n2cccc2)CC1,2.27
21,O=S(=O)(/N=C/c1c(O)ccc2ccccc12)c1cccs1,-3.14
22,CC12CN3CC(c4ccccc4)(CN(C1)C3c1ccccc1)C2=O (stereo not drawn),6.7
23,COc1ccc(CN2C(=O)c3cccnc3C2=O)cc1S(=O)(=O)NCc1ccc(C)o1,-3.45
24,Cc1cc(C)c(Cn2c(C)c(CNCc3ccc(C)o3)c(C(=O)O)c2C)c(C)c1,7.46
25,CCN(C(=O)c1ccc(Br)cc1)c1ccccc1C,-1.22

row,SMILES,% Inhibition @ 10 uM [%]
1,CCC(CC)c1nc(O)c2ccccc2n1,4.25
2,COc1cc(COC(=O)N[C@@H](CC(C)C)C(=O)NCC#N)cc(OC)c1,0.174
3,Cc1cc(N2CCCCC2)nc(N(CCO)CCO)n1,4.42
4,Cc1ccc(C)c(OCCCn2cc(C(=O)O)c3ccccc32)c1,0.627
5,CCOc1ccccc1OCc1nn2c(-c3ccc(C(C)(C)C)cc3)nnc2s1,-5.62
6,CN(C)Cc1ccccc1C(O)(c1ccccc1)c1ccccc1,-4.26
7,CN(CC(=O)NCc1ccc2c(c1)OCO2)S(=O)(=O)c1cccc2nsnc12,2
8,CCCCCC1CCC(c2ccc(C(=O)N3CCOCC3)cc2)CC1 (stereo not drawn),-3.35
9,CCCN1CCN(C(=O)Cn2nc(C)n3c(cc4c(OC)cccc43)c2=O)CC1,-3.47
10,OCCn1nc(-c2ccccc2)cc1-c1ccccc1,0.612
11,Cc1ccc(CNC(=O)C2Sc3nnc(C)n3NC2c2ccccc2)cc1 (stereo not drawn),-9.37
12,Cn1c(=O)c2c(O)c3c(nc2n(C)c1=O)CCCC3,4
13,CCOc1ccc(-c2nn(-c3ccccc3)cc2/C=N/C2CCS(=O)(=O)C2)cc1C (stereo not drawn),-1.25
14,C/N=c1\c(NC(=O)c2c(-c3ccccc3Cl)noc2C)c(O)oc2ccccc12,-0.0709
15,Cc1[nH]c2ccc([N+](=O)[O-])cc2c1C,2.62
16,O=C(O)c1cc(C(=O)O)cc(N2C(=O)C3C4C=CC(C4)C3C2=O)c1 (stereo not drawn),-1.77
17,O=C(CNS(=O)(=O)c1ccc(F)cc1)N1CCCCCC1,3.75
18,Cc1ccc(N2C(=O)C(C)SC23C(=O)Nc2ccccc23)cc1 (stereo not drawn),3.88
19,Cc1ccccc1OCCCCn1nnc2sc3c(c2c1=O)CCCC3,-2.71
20,O=C(CNC(=O)c1cccs1)NC1CCCCCCC1,2.05
21,CCCCN(C)C(=O)Cn1ncc2c1-c1ccccc1OC2,0.0579
22,CCOC(=O)N1CCN(S(=O)(=O)c2ccc(-c3cc(C(F)(F)F)no3)s2)CC1,-1.05
23,O=C(NCCSCc1ccco1)c1ccc(CN2CCc3ccccc3C2)cc1,1.63
24,N#CC1=C(N)OC2=C(CCCC2)C1c1ccc(F)cc1 (stereo not drawn),-0.294
25,Cc1ccc(S(=O)(=O)CC2CSc3nnc(C)c(=O)n32)cc1 (stereo not drawn),1.91

row,SMILES,% Inhibition @ 10 uM [%]
1,CCOc1ccc(/C=C/c2nc(C#N)c(N3CCOCC3)o2)cc1,0.895
2,CC(Cc1cccc(C(F)(F)F)c1)NCCN1CCCCC1 (stereo not drawn),-3.42
3,COc1cccc(CNC(=O)CCCN2C(=O)C(c3ccccc3)Oc3cccnc32)c1OC (stereo not drawn),2.33
4,Cc1c2cnn(CC(=O)N3CCOCC3)c(=O)c2c(C)n1Cc1ccccc1F,-0.447
5,CC(C)Oc1ccc2ccccc2c1/C=C1\SC(=O)N(CC(=O)N2CCCCC2)C1=O,-0.25
6,O=C(N/C(=C\C=C/c1ccccc1)C(=O)N1CCOCC1)c1ccc(Br)o1,0.674
7,COc1ccccc1/C=C(\NC(=O)c1ccccc1)C(=O)N1CCCCCC1,-1.26
8,CC1CCCC(C)N1C(=O)c1ccc(Br)cc1 (stereo not drawn),-7.5
9,CCOC(=O)c1[nH]c2ccccc2c1NC(=O)Cc1cccc(C)c1,0.813
10,CC(CCN1C[C@@H]2C[C@H](C1)c1cccc(=O)n1C2)c1ccccc1 (stereo partly drawn),-1.85
11,Cc1ccc(NC(=O)c2cccnc2)cc1C,-4.4
12,COc1ccc(-n2c(CN3CCOCC3)nc3ccccc3c2=O)c(OC)c1,-1.51
13,Cc1noc(C)c1CCNC(=O)c1nn(C)c2c1CS(=O)(=O)c1ccccc1-2,-0.495
14,CC1CCc2nn(CC(=O)NCc3ccc(F)cc3)cc2C1 (stereo not drawn),-3.35
15,O=C(Nc1ccc(-c2ccc([N+](=O)[O-])cc2)cc1)c1ccc(Cl)cc1,4.6
16,CC(=O)c1cccc(NC(=O)/C=C/c2ccc(Cl)cc2)c1,4.6
17,O=C(N/C(=C/c1ccco1)C(=O)N1CCOCC1)c1ccsc1,-0.366
18,Cc1ccc(-c2cn3c(n2)sc2cc(C(=O)NCCN(C)C)ccc23)cc1,11.6
19,CC(C)CCNC(=O)CCc1nnc2n(CCc3ccccc3)c(=O)c3ccccc3n12,-2.42
20,Oc1cc(-c2ccccc2)nc2nc(COc3ccccc3)nn12,2.62
21,CCOC(=O)c1c(C)oc2nc(C)nc(NCc3ccc(CN4CCCCC4CC)o3)c12 (stereo not drawn),-1.61
22,CS(=O)(=O)C1=NN2C(=N)/C(=C\c3ccc(Br)o3)C(=O)N=C2S1,-3.58
23,N#Cc1nc(COc2ccc(Cl)cc2)oc1NCc1ccc(F)cc1,0.343
24,COc1cccc2c(Cl)c(C/C=C(/C)Cl)c(C)nc12,-4.03
25,Cc1cc2c(C(F)(F)F)cc(=O)oc2c2c1NCCC2,-2.91

row,SMILES,% Inhibition @ 10 uM [%]
1,COc1ccc(/C=C/C(=O)N2CCC(CN3C(=O)c4cccc5cccc(c45)C3=O)CC2)cc1OC,-3.98
2,COc1ccc2[nH]c(O)c(N=NS(=O)(=O)c3ccc(C)cc3)c2c1,-1.93
3,O=C(NCCC1=CCCCC1)c1cnn2c(C(F)(F)F)cc(-c3ccccc3)nc12,4.36
4,N#Cc1c(-c2ccc(F)cc2)cc(C2CC2)nc1S,4.63
5,Cc1ccc(C2=C/C(=C/c3ccc(Cl)cc3)C(=O)O2)cc1,1.84
6,Cc1ccc(NC(=O)COc2ccccc2C)nc1,-2.29
7,CCCN(Cc1ccccc1)C(=O)c1ccc(N2C(=O)CCC2=O)cc1,-7.75
8,COc1ccc(OC)c(N2C(=O)CC(N3CCc4ccccc4C3)C2=O)c1 (stereo not drawn),-1.95
9,COc1ccc2cc3cc(C(=O)NCC4CCCO4)oc3nc2c1 (stereo not drawn),1.9
10,Cc1nn(C)c(C)c1CN(C)S(=O)(=O)c1cccc2cccnc12,-0.312
11,COc1ccc(C2C3=C(CC(C)(C)CC3=O)N(CCN3CCOCC3)C3=C2C(=O)CC(C)(C)C3)cc1,6.64
12,Cc1ccc(-n2nc(C)c(/C=N/c3ccc(S(=O)(=O)NCc4ccccc4)cc3)c2O)cc1,-1.08
13,N#Cc1c(-c2ccc3c(c2)OCO3)cc(-c2ccccc2)nc1S,11.7
14,CC(=O)OC(C)(C)C#CCN1CCCCC1,-0.268
15,CCCOc1cccc(OCC(=O)Nc2nc3ccccc3[nH]2)c1,2.02
16,Cc1cccn2c(=O)c(/C=N/CCO)c(NCc3ccccc3)nc12,3.06
17,N=c1cc2[nH]c3ccccc3sc-2cc1=O,49.8
18,COc1ccc(N2C(=O)CC(N3CCC(C(N)=O)CC3)C2=O)cc1F (stereo not drawn),-5.34
19,Cc1ccc(OCC(=O)Nc2ccccc2OC(F)F)cc1C,-1.61
20,O=C(NCCCN1CCC(Cc2ccccc2)CC1)C1CCN(S(=O)(=O)N2CCCC2)CC1,0.514
21,Cc1ccc(-c2cn3nc(N4CCC(C(=O)N(C)Cc5ccccc5)CC4)sc3n2)cc1,4.36
22,COc1ccc(C(=O)Nc2sc(C)c(-c3ccccc3)c2C#N)cc1OC,3.96
23,O=c1/c(=C/c2ccccc2)sc2nc(-c3cccs3)nn12,-5.2
24,COc1cccc(CN2CCN(C3CCCC(C)C3)CC2)c1OC (stereo not drawn),4.31
